According to ChEMBL document CHEMBL4888484, “Replenishing the malaria drug discovery pipeline: Screening and hit evaluation of the MMV Hit Generation Library 1 (HGL1) against asexual blood stage Plasmodium falciparum ,using a nano luciferase reporter read-out” (2022):
About 540 (0.36%) of roughly 150,000 compounds showed an effect of 50% or more. The list shows a part of the results.

These compounds were tested on Plasmodium falciparum (assay: Primary screen in NF54 nanoGlo assay, in single point, at 2uM, 72h; a lower Z score goes with more inhibition). Details: timepoint 72 hour.
Format: functional, Erythrocyte

| SMILES | % Inhibition [%] | Z score |
| --- | --- | --- |
| Cc1cc(C(=O)N2CCO[C@H](c3ccco3)C2)no1 | -13 | 1.52 |
| CCN1C[C@@H](CN(C)Cc2nc(-c3ccc(OC)c(OC)c3OC)no2)CC1=O | -11 | 1.29 |
| Cc1noc(C)c1CN1CCC(CC2CC2)(C(N)=O)CC1 | 2 | -0.24 |
| COc1ccc(CCNC(=O)CN2C(=O)CCn3nc(-c4cccn4C)cc32)cc1OC | -6 | 1.08 |
| COc1cccc(CC2(C(=O)N3CCOCC3)CC3CCC2C3)c1 (stereo not given) | -9 | 1.2 |
| CN(C)c1nc(NCC[C@H]2CCCCN2S(C)(=O)=O)ncc1F | 6 | -0.86 |
| O=C(N[C@H](c1cccnc1)C1CCOCC1)c1ccccn1 | -4 | 0.81 |
| CCC[C@H](C)N1CC2(CCN(C(=O)c3ccccn3)CC2)OC1=O | -4 | 0.59 |
| CN(Cc1nc2ccc(F)cc2[nH]1)Cc1cn(C)nc1-c1cccc(Cl)c1 | 3 | -0.69 |
| COc1cc(-c2cc(C3CCC3)nc(N)c2C#N)cc(Cl)c1O | -9 | 1.45 |
| Cn1ccnc1[C@H]1CCN(c2nc3cc(S(N)(=O)=O)ccc3[nH]2)C1 | -8 | 1.07 |
| O=C1NC(=O)C(Cc2ccc(NC(=O)[C@H]3C[C@@H]3c3cccc(Cl)c3)cc2)N1 (stereo not given in full) | -7 | 1.35 |
| CC(C)c1cc(CN(C)C(=O)CN2C(=O)OC[C@@H]2c2ccccc2)no1 | -9 | 1.61 |
| COc1cc2c(cc1OC)CN(C(=O)CC1C[C@H]3CC[C@@H]1C3)CC2 (stereo not given in full) | -15 | 1.91 |
| CC(C)CNC(=O)c1nc2cccnc2n(C)c1=O | -12 | 1.86 |
| Cc1ncn(CCNS(=O)(=O)CC(C)C)c1C | -13 | 2.25 |
| COc1ccc(CN(C)c2cc([C@H]3C[C@@H](N)C3)ncn2)cc1 | -4 | 0.58 |
| Cc1cc(Br)cc(C(=O)N(CC(N)=O)C(C)C)c1 | -3 | 0.49 |
| COCC(=O)Nc1cc(C(=O)N(C)C2CCOCC2)cc2ncn(CCc3ccccc3)c12 | 14 | -1.88 |
| Cc1oc(C2CCN(S(=O)(=O)c3ccc(C(C)C)cc3)CC2)nc1C(=O)N(C)C | -7 | 1.1 |
| O=C(O)C[C@@H]1CCN(C(=O)NC2CCCCC2)C[C@@H]1CCN1CCCCC1 | 10 | -1.52 |
| O=C(Cn1nc(C2CC2)ccc1=O)N1CCN(c2ncccn2)CC1 | 11 | -1.45 |

| SMILES | % Inhibition [%] | Z score |
| --- | --- | --- |
| Cc1cc(C)cc(C2(c3noc(C4C[C@@H]5CC(=O)[C@H]4C5)n3)CC2)c1 (stereo not given in full) | 18 | -2.23 |
| O=C(CCc1cc(O)no1)N1CCC(c2cc(N3CCCC3)ncn2)CC1 | -10 | 1.45 |
| CC(C)C(=O)N1CCC[C@H](Nc2nc3cc(C(=O)O)ccc3n2C)C1 | -14 | 2.41 |
| CC(=O)N1CCN(C(=O)N[C@H](C)c2ccc(F)cc2)CC1 | -15 | 2.82 |
| Cc1noc(C)c1C[C@H](C)NS(=O)(=O)CCC(C)(F)F | -8 | 1.12 |
| O=C(c1cccc(-c2ccc3nccc(O)c3c2)c1)N1CCN(CCO)CC1 | -18 | 3.37 |
| CCOc1cc(C(=O)N2CCN(S(C)(=O)=O)CC2)ncn1 | -9 | 1.67 |
| CC[C@H]1CCCCN1CCNC(=O)NCc1scnc1C | 1 | -0.17 |
| Cc1ncncc1C(=O)N(C)[C@H]1CCCN(C(=O)COCC(F)F)C1 | -3 | 0.44 |
| COc1cc(C)nc(NC(=O)[C@H]2CCCOCC2)n1 | -9 | 1.57 |
| C[C@H](NCc1nnc2ccccn12)C1CN(C(=O)OC(C)(C)C)C1 | 4 | -0.53 |
| CCc1cc(N(C)Cc2noc(C)n2)nc(C)n1 | -10 | 0.96 |
| CCCCN(C(=O)c1ccccc1)C(=O)c1ccccc1 | 36 | -4.04 |
| O=C(Cc1n[nH]c(=O)[nH]1)N[C@H]1CCc2ccccc21 | -5 | 0.88 |
| O=C(CCc1ccncc1)N[C@H]1CC(=O)N(Cc2cccc3ccccc23)C1 | -4 | 0.61 |
| Cc1ccc(OC2CCN(C(=O)c3nn(C)c4c3CCCC4)CC2)cc1 | -10 | 1.11 |
| CCCn1cnc(NC(=O)NCc2cc(CC)no2)n1 | -7 | 0.89 |
| CCCC[C@H](CC)C(=O)NCc1ccc(S(N)(=O)=O)cc1 | -1 | 0.11 |
| O[C@H]1COC[C@@H]1Nc1ncc(Cl)cn1 | -8 | 1.6 |
| Cc1ccc(COc2cccc(CNC3CC3)c2)cc1 | 30 | -4.1 |
| COC(=O)[C@]1(NCC(=O)NCc2cccc(OC)c2)CCCN(Cc2ccccc2)C1 | -8 | 0.68 |
| c1ccc(CN2CCCCCCC2)nc1 | -16 | 3 |

| SMILES | % Inhibition [%] | Z score |
| --- | --- | --- |
| O=C(Nc1cccc2ncccc12)[C@@H]1COc2ccccc2O1 | -1 | 0.11 |
| CCS(=O)(=O)N1CCC[C@H](c2cc(F)ccc2F)C1 | -2 | 0.46 |
| COc1ccc(CNC(=O)N2CCC[C@H](Cc3nncn3C)C2)cc1 | -9 | 1.13 |
| C=C(C)COc1ccccc1CN1CCN2CCNC(=O)[C@@H]2C1 | -4 | 0.45 |
| O=C(c1ccc(Oc2ccccc2)o1)N1CCNC(=O)C12CCCC2 | -9 | 1.65 |
| O=c1[nH]c(=O)n(CCS(=O)(=O)c2ccccc2)cc1Cl | -11 | 1.09 |
| C[C@]1(O)CCN(Cc2ccc(-c3ccccc3C#N)o2)C[C@@H]1O | -5 | 0.75 |
| CC(C)Cc1cc(C(=O)N2CCc3ccccc3C2)no1 | -6 | 0.65 |
| C[C@@H]1NC(=O)N(CCc2cccc(C(=O)N(C)C)c2)C1=O | -12 | 1.58 |
| COc1ccc([C@H]2[C@H](C(=O)NCc3c(C)noc3C)CCC(=O)N2C)cc1 | 30 | -3.4 |
| Cc1[nH]c2ncnc(N3CCNC(=O)C3)c2c1C | -4 | 0.6 |
| O=C1C[C@@H]2CCN(C3CCC(F)(F)CC3)C[C@@H]2CCOc2ccccc2N1 | 0 | -0.02 |
| COC1CCC(C)(CNC(=O)N2CCC(C)C(C(=O)O)C2)CC1 (stereo not given) | -2 | 0.43 |
| CCN(CC)c1nc2ncn(CC(=O)Nc3ccc(C)cc3Cl)c(=O)c2s1 | -8 | 0.99 |
| CCCN(CC1CC1)C(=O)c1c[nH]c(C(F)(F)F)c1 | 4 | -0.54 |
| O=C(NCc1ccccc1Cl)c1cn(C[C@H](O)c2cccs2)nn1 | -2 | 0.47 |
| Cc1n[nH]c2c1CN(S(=O)(=O)c1cc(-c3ccno3)sc1C)CC2 | -3 | 0.31 |
| CC1CCN(S(=O)(=O)Nc2cccnc2)CC1 | 6 | -1.04 |
| COC(=O)c1ccccc1Cn1ncc2c1[C@@H](NC(=O)OC(C)(C)C)CCC2 | -9 | 1.44 |
| Cn1c(-c2ccccc2Cl)c(-c2cn3ccccc3n2)c(=O)n(C)c1=O | -6 | 0.62 |
| Cc1ccc2ncc(CN3CCN(c4nnc(C)s4)CC3)cc2c1 | -3 | 0.44 |
| O=S(=O)(c1cncc(F)c1)N(Cc1ccccc1)c1ccncc1 | -7 | 1.17 |

| SMILES | % Inhibition [%] | Z score |
| --- | --- | --- |
| CCCn1nc(CCOC)nc1-c1cc(CC(C)C)nn1C | -4 | 0.83 |
| Cc1nc([C@H](C)NC(=O)c2c[nH]nn2)cs1 | -16 | 3.47 |
| CC(=C1CCCC1)c1nc(-c2ccncc2)no1 | -6 | 1.06 |
| CC(C)C[C@@H](CNC(=O)COCc1nc2ccccc2c(=O)[nH]1)N1CCOCC1 | 34 | -3.8 |
| CC(=O)N1C[C@@H](O)C[C@@H]1C(=O)N1CCCC1c1ccc(F)cc1C (stereo not given in full) | 0 | -0.05 |
| Cc1c(C(=O)N[C@H]2CCN(Cc3cscn3)C[C@@H]2O)ccn1C | -9 | 0.92 |
| COC1CC2C(=O)N(C3CCN(c4ccccn4)CC3)C(=O)N2C1 (stereo not given) | 3 | -0.44 |
| CCOc1cc2c(cc1OCC)[C@@H]1CC(=O)N(c3ccc4c(c3)OCO4)C(=O)N1CC2 | 12 | -2.02 |
| Cc1cccc(NC(=O)Cn2c(C)cc(=O)n3nc(-c4cccc(C)c4)nc23)c1 | -3 | 0.39 |
| COc1ccc([C@H]2CN(c3nc(N(C)C)nc(C)c3C)C[C@@H]2N)cc1 | 8 | -1.16 |
| CN1CCC(Cc2ccc(CN(C(=O)C3CCCC3)C3CC3)cc2)CC1 | -10 | 1.85 |
| COc1ccc2c(c1)N(C(=O)NC1CCCCC1)C(C)(C)C[C@@H]2C | -4 | 0.44 |
| O=C(NCc1nncn1-c1ccc(F)cc1)c1cccnc1O[C@H]1CCOC1 | 8 | -1.43 |
| CO[C@@H](CN=C(N)N1CCCCCC1)C(C)C | -7 | 0.89 |
| Cc1cn2nc(NC3CC(C)n4ccnc43)sc2n1 (stereo not given) | 0 | -0.03 |
| CC[C@H](C)[C@@H]1NC(=O)N(C2CC(c3ccccc3)C2)C1=O (stereo not given in full) | -5 | 0.88 |
| CC(C(O)c1ccc2ccccc2c1)N1CCCCC1 (stereo not given) | -1 | 0.26 |
| CC1(C)CN(C(=O)c2ccc(S(C)(=O)=O)cc2)[C@@H]1c1ccccc1 | -4 | 0.65 |
| Cc1cc(C)cc(OCC(=O)N2CCCC[C@@H]2CCN2CCCCC2)c1 | -10 | 1.37 |
